Results from ChEMBL document CHEMBL4888484, “Replenishing the malaria drug discovery pipeline: Screening and hit evaluation of the MMV Hit Generation Library 1 (HGL1) against asexual blood stage Plasmodium falciparum ,using a nano luciferase reporter read-out” (2022).
Hit rate of the full screen: of about 150,000 compounds, about 540 (0.36%) showed an effect of 50% or more. This is one part of the list.

The compounds below were run on Plasmodium falciparum (assay: Primary screen in NF54 nanoGlo assay, in single point, at 2uM, 72h; a lower Z score goes with more inhibition). Conditions: timepoint 72 hour.
Assay type: functional, Erythrocyte

Row | Compound | % Inhibition [%] | Z score
1 | O=c1nc(C(F)(F)F)ccn1Cc1nnc2n1CCOCC2 | -14 | 2.72
2 | CC[C@@H](CC#N)OC(=O)c1cccc(F)c1 | -14 | 2.56
3 | O=C(Cc1noc(-c2cccc3[nH]ccc23)n1)NC1CCCC1 | 0 | 0.01
4 | Cn1c(=O)n(-c2ccc(N)cc2)c(=O)n1C | 3 | -0.35
5 | CCc1nc(Cc2ncccc2C)n(CCO)n1 | 9 | -1.65
6 | Cc1nonc1CN(C)C(=O)c1ccccc1NCc1cccs1 | -1 | 0.15
7 | CC(C)Cc1cc(Cn2cnc(-c3ccccc3)c2-c2ncc[nH]2)on1 | -2 | 0.28
8 | O=C(CCCc1ccc(F)c(F)c1)NC1CCCC1C(=O)O (stereo unspecified) | -11 | 1.46
9 | Nc1cccc(-c2nnc(-c3cccnc3)[nH]2)c1 | 3 | -0.41
10 | CC(C)COCCCNS(=O)(=O)c1ccc(C(N)=O)cc1 | -1 | 0.28
11 | CCn1cc(NC(=O)c2cc(C3CC3)nc3onc(-c4cccc(OC)c4)c23)cn1 | -4 | 0.58
12 | Cn1c(CNc2nc(C3CCCC3)ns2)nc2ccccc21 | 16 | -2
13 | CC(C)(O)[C@H](Oc1ccccc1)c1nc(-c2cnccn2)no1 | -2 | 0.34
14 | C[C@H]1CC[C@@H](C(=O)O)N1S(=O)(=O)c1ccc2nc(C(C)(C)C)sc2c1 | -10 | 1.54
15 | Cn1cnn(C[C@H]2CCCC2(F)F)c1=O | -7 | 0.98
16 | COc1ccc(CN2C[C@H]3CN(S(=O)(=O)c4ccc(Cl)cc4)CCN3C2=O)cc1 | -12 | 1.57
17 | CCn1nc(C)c(CN/C(=N\c2ccc(F)c(Cl)c2)NC(=O)c2ccccc2C)c1C | -5 | 0.88
18 | CC(=O)C[C@H]1COCCN1C(=O)Cn1c(=O)cnc2ccccc21 | -8 | 1.14
19 | COCCN1CC[C@H](CN(C)S(=O)(=O)c2ccc(C(C)C)cc2)C1 | -3 | 0.64
20 | CC[C@H](C)N(Cc1ccsc1)Cc1cc(C#CCO)cs1 | -8 | 1.08
21 | Cc1ccc(S(=O)(=O)N2CCC[C@H](C3OCCO3)C2)c(Cl)c1 | -14 | 2.66

Row | Compound | % Inhibition [%] | Z score
22 | O=C1CC(C(=O)N2CCCC2c2ccncc2)CN1C1CCCC1 (stereo unspecified) | -2 | 0.14
23 | CCc1ccc(-c2cc3c(=O)n(CC(=O)NCCN4CCCC4)nc(C)n3n2)cc1 | 0 | -0.06
24 | Cc1ccccc1-c1ncc(CN2CCC[C@H](c3nnc(CO)n3C)C2)s1 | -11 | 2.05
25 | CO[C@@]1(C(=O)NCC2(CO)CC3(CCC3)C2)CCOC1 | 0 | 0.06
26 | CCc1ccc(CN(C)C(=O)CN2CCC[C@H]2c2ccc3c(c2)OCCCO3)cc1 | 2 | -0.31
27 | Cc1cc(C(=O)N(CCN2CCOCC2)c2nc3c(C)c(C)ccc3s2)on1 | -7 | 1.06
28 | Cc1c(-c2ccnc3cc(C(=O)Nc4cccc(F)c4)nn23)cnn1C | 1 | -0.16
29 | Cc1ncc(S(=O)(=O)N2CCC(N3CCc4cc(F)ccc43)CC2)s1 | -11 | 1.75
30 | O=C(Nc1nncs1)[C@H]1CCCN(C(=O)C2(c3cccc(Cl)c3)CCC2)C1 | -5 | 0.88
31 | COc1ccc(C)cc1NC(=O)CNC(=O)CN1CCN(S(=O)(=O)c2ccc(C(C)=O)cc2)CC1 | -3 | 0.56
32 | Cc1ccc(-n2ccc(=O)c(C(=O)Nc3c(C(=O)c4ccc(Cl)cc4)oc4ccccc34)n2)cc1 | -15 | 2.69
33 | Cc1nc(C(C)C)sc1CNC(=O)[C@H]1C[C@H]2C=C[C@@H]1C2 | -28 | 2.51
34 | O=C(c1cnc(-c2cccnc2)nc1O)N(CCO)Cc1ccccc1Cl | -13 | 1.71
35 | O=C(C1CCCCCC1)N1CCC(n2cc(C3CCCC3)nn2)CC1 | -6 | 1.16
36 | CN(C)CC(=O)N1CC2(CCCCC2)C[C@@H]1COCc1ccccc1 | 2 | -0.39
37 | Cc1cc(NS(=O)(=O)c2ccc(OCc3ncnn3C)cc2)n(C)n1 | 4 | -0.52
38 | O=C(Nc1cccc2cccnc12)c1ccccn1 | 79 | -8.04
39 | O=C(c1c[nH]c2c1ccc1ccccc12)C(F)(F)F | -12 | 2.21
40 | Cc1nccn1-c1ncc(NC(=O)Nc2ccccc2)cn1 | 22 | -0.58
41 | C[C@](O)(CNC(=O)c1ccc(Br)o1)c1ccc2c(c1)OCO2 | -10 | 1.71
42 | CCC(CC)c1cc(C(=O)N2CCN(Cc3c(C)nc4cc(C)ccn34)CC2)on1 | 2 | -0.27

Row | Compound | % Inhibition [%] | Z score
43 | Cn1ncnc1CCNc1nc2c(c(=O)[nH]1)Cc1ccccc1OC2 | -3 | 0.62
44 | Cc1cc(C(NC(=O)NC2CCS(=O)(=O)C2)C(C)C)c(C)s1 (stereo unspecified) | -13 | 2.45
45 | COCc1nc(-c2ccc3[nH]c(C)c(C)c3c2)n(CC(C)(C)O)n1 | -20 | 1.8
46 | CN(C)C(=O)N1CCC(c2nnc3n2CCN(C(=O)NCc2cccc(F)c2)C3)CC1 | 7 | -1.12
47 | CCc1ccc(CNC(=O)[C@H]2CCn3c(nc4ccccc43)C2)cc1 | -2 | 0.37
48 | Cc1nn(-c2ccc3nncn3n2)c2c1[C@@H](c1ccc(F)c(F)c1F)CC(O)=N2 | 19 | -2.38
49 | O=C(NC1CC1)c1nnc(N2CCCCC2)c2ccccc12 | -13 | 1.22
50 | CCCCn1nc(-c2c[nH]c3ccccc23)nc1C1(O)CCN(C)CC1 | -1 | 0.13
51 | Cc1cccc(OCC(=O)N2CC(N(CCN3CCOCC3)S(C)(=O)=O)C2)c1 | -6 | 0.77
52 | CN(C(=O)[C@@H]1CCCO1)c1ncccc1F | 4 | -0.51
53 | Cc1oc(C)c(C(=O)Nc2nc(-c3cccc(-n4cnnn4)c3)cs2)c1Cl | -7 | 1.15
54 | CCN1CCN(C[C@H]2COc3ccccc3O2)CC1 | -1 | 0.13
55 | Cc1cc(C)nc(O[C@H]2CCN(C(=O)COc3ccccc3F)C2)n1 | -15 | 2.32
56 | COc1ccc(CCN2C[C@H](O)C(C)(C)COCCC[C@H]3CN(Cc4c(C)noc4C)CC[C@H]3CC2=O)cc1 | -13 | 1.88
57 | Cc1cc(C)c(S(=O)(=O)N2CCCC(C(=O)N[C@@H]3CCCC[C@H]3NC(=O)c3ccccc3C)C2)c(C)c1 (stereo partly specified) | -15 | 2
58 | CN1CCCCC(CNC(=O)NC2CCC(OC(F)F)C2)C1 (stereo unspecified) | -12 | 2.19
59 | CCCNCc1ccc(Cl)cc1Cl | -3 | 0.39
60 | Cc1cccc(NC(=O)NCC(F)F)c1Br | -7 | 1.04
61 | O=C(CN(C(=O)c1ccccc1F)C1CC1)N(CCc1c[nH]c2ccccc12)Cc1ccc(Cl)cc1 | 1 | -0.22
62 | Cc1ccc(C(=O)N2C[C@@H]3CN(CC4CCC4)C[C@]3(C(=O)O)C2)cc1 | -5 | 0.48
63 | Cc1cc(C)n(CC(=O)OCC(=O)NC(=O)NC(C)C2CC3CCC2C3)n1 (stereo unspecified) | 0 | 0.05

Row | Compound | % Inhibition [%] | Z score
64 | CCOc1c(Br)cc(CNc2ccc(N3CCN(C(C)=O)CC3)cc2)cc1OC | -17 | 2.12
65 | O=C1CCC(C(=O)NC(c2ccccc2)C2CCOC2)N1 (stereo unspecified) | 1 | -0.27
66 | CC(C)C(=O)N(Cc1cc(NC(=O)NC(C)(C)C)ccc1N(C)C)[C@@H](C)C(C)C | -1 | 0.12
67 | COc1cccc([C@H]2CN(C(=O)c3ccc(C)c(F)c3F)C[C@@H]2N)c1 | 2 | -0.21
68 | Cc1cc(Br)cnc1-c1noc([C@@](C)(O)C2CC2)n1 | -3 | 0.36
69 | C[C@@H](C(=O)OCc1ccccc1)S(N)(=O)=O | -8 | 1.44
70 | O=C(CNc1ccc(F)cc1)N(Cc1ccncc1)C1CC1 | -19 | 1.78
71 | CCn1cnnc1CCNc1cc(C)c2cc(OC)cc(OC)c2n1 | -20 | 2.75
72 | O=C(NCCCC(=O)N1Cc2ccccc2C1)NCC1CCC1 | -13 | 2.6
73 | COc1ccc(-c2ccc(N3CCN(C(=O)CN(CCC(C)C)C(=O)Nc4ccc(C)cc4)CC3)nn2)c(OC)c1 | 9 | -1.13
74 | CCCCC1(CCCC)C(=N)N(C)C(=O)N(C)C1=O | -19 | 2.51
75 | CN(CC1CCOCC1)c1nccnc1N(C)CC1CCOCC1 | -10 | 2
76 | COc1cccc(CNC(=O)c2cc3n(n2)CCCN(Cc2ccc(Cl)cc2)C3=O)c1 | -14 | 2.41
77 | O=C(NCCOCc1ccccc1)[C@@H]1COc2ccccc21 | 0 | -0.07
78 | Cc1noc(C)c1N(C)C(=O)c1cccc(Br)c1C | 3 | -0.56
79 | CC(C)Oc1ccc(C(=O)N2C3CCC2CC(n2nccn2)C3)cc1 (stereo unspecified) | -3 | 0.58
80 | O=C1NC2(CCCCC2)NC2=C1CCCC2 | 7 | -0.93
81 | Cc1ccc(F)c(C(=O)N2CCC(CO)(CN3CCCC3)CC2)c1F | -2 | 0.28
82 | O=C(CN1CCC(NC(=O)N2CC(Oc3ccc(F)cc3)C2)CC1)NC1CC1 | 8 | -1.21
83 | Cc1ncc(C(=O)NCc2ccc3[nH]c(-c4ccccc4F)c(C)c3c2)cn1 | -5 | 0.61
